In all, about 52,000 compounds went through this assay and about 4,300 (8.3%) were called active. No stated cut-off is given here; in the data, active means survival mostly below about 52% (no sharp cut-off); inactive means mostly above about 56%. The list shows a part of the results.

This test concerns DeltatarO mutant. As to the kind of experiment: growth inhibition of S. aureus wild type versus tarO mutant, primary screen, teichoic acid synthesis inhibitors, RN4220, OD600 (AID 463173). The following applies: OD600, 18 h, active compounds read low, screened at 18.75 µg/mL (by protocol).
As for `FC(F)(F)c1cc(-c2ccccc2)nc2cc(-c3ccc(Br)cc3)nn12`, the survival is active: 42%.
In the case of `Cc1nnc(SCc2ccc(Cl)cc2)c2cc3occc3n12` it was active: 28%.
In the case of `Cc1cccc(N2CCN(c3cc(C)nc4c(-c5ccc(Cl)cc5)c(C)nn34)CC2C)c1` (stereo unspecified), the survival is inactive: 68%.
For `CCOc1ccc(NC(=O)NCCCN2CCN(c3ccc(F)cc3)CC2)cc1`, the survival is inactive: 76%.
On to `O=C(O)CCC1(CCC(=O)O)CCCCC1=O`, for which the survival was inactive: 88%.
For `CCCNc1ncnc2onc(C)c12`, the survival was inactive: 80%.
Turning to `Cc1ccc(C(=O)n2nc(C)c(S(=O)(=O)N3CCOCC3)c2C)cc1`, the survival is inactive: 77%.
In the case of `Cc1ccc(CSc2nc(-c3cccs3)ccc2C#N)cc1` it was active: 25%; in that of `CC(C)c1cnc2c(c1SCC(=O)Nc1ccccc1C(F)(F)F)c(=O)n(C)c(=O)n2C`, inactive: 68%; in that of `COc1cccc(-c2nn(C)c3sc(C(=O)NCCc4ccc(Cl)cc4)cc23)c1`, inactive: 87%.
Turning to `O=C(NCc1ccco1)C(c1ccccc1)N(Cc1ccco1)C(=O)Cn1nnc2ccccc21` (stereo unspecified), the survival was inactive: 93%.
Turning to `Cc1cc(S(=O)(=O)Nc2ccc(-c3ccc(N4CCCCC4)nn3)cc2)c(C)cc1Cl`, the survival is inactive: 118%.
`CCOc1ccc(NC(=O)CSc2nnc3scc(-c4ccc(Cl)cc4)n23)cc1`: the survival is inactive: 48%.
With `CCOc1cccc2cc(-c3nc4ccc(C(=O)O)cc4[nH]3)c(=O)oc12`, the survival was inactive: 69%.
In the case of `COc1cc2oc(=O)c(CC(=O)N3CCCCC3)c(C)c2cc1Cl`, the survival was inactive: 64%.
With `COc1ccc(C)cc1S(=O)(=O)N1CCN(c2cccc(Cl)c2)CC1`, the survival is inactive: 59%.
In the case of `Cc1cccc(-n2c3nc(=O)[nH]c(=O)c-3cc3c(Cl)cccc32)c1C`, the survival is inactive: 130%.
In the case of `CC(=O)N1CCc2c(sc3c2c(=O)n(-c2ccccc2)c(=O)n3CC(=O)Nc2ccccc2C)C1` it was inactive: 71%; in that of `Cc1ccccc1S(=O)(=O)Cc1ccc(C(=O)NC2CCCCC2)o1`, inactive: 116%; in that of `COc1ccc(NC(=O)c2oc3ccccc3c2NC(=O)c2cc3ccccc3o2)cc1`, inactive: 89%.
In the case of `CCOc1ccc(NS(=O)(=O)c2ccc3[nH]cc(C(=O)N(C)Cc4ccccc4)c(=O)c3c2)cc1` it was active: 6%; in that of `Cc1ccc(OC(=O)c2cc(-c3ccc4c(c3)OCCO4)on2)cc1C`, active: -2%.
Regarding `COc1ccc2c(c1)CC(NC(=O)Nc1c(C)cc(C)cc1C)CO2` (stereo unspecified), the survival was inactive: 69%.
With `Cc1ccccc1OCC(=O)OCc1cc(=O)n2nc(C3CCCCC3)sc2n1`, the survival is inactive: 85%.
To `CCCNc1ncccc1C(N)=O` belongs inactive: 110%; to `CC(=O)c1ccc(N2CCN(S(=O)(=O)c3ccc(-c4cc(C(F)(F)F)on4)s3)CC2)cc1`, inactive: 96%.
For the molecule `CSc1cccc(NC(=O)Cn2c3ncccc3c(=O)n2-c2ccc(C)cc2)c1`, the survival is inactive: 105%.
In the case of `Cc1csc2nc(COc3ccccc3NC(=O)c3ccco3)cc(=O)n12`, the survival is inactive: 135%.
Consider `Cc1ccc(C)c(CN2C(=O)c3ccccc3S(=O)(=O)c3ccc(C(=O)N4CCCCCC4)cc32)c1`, for which the survival was inactive: 67%.
As for `CCOC(=O)c1ccc2oc(=O)n(Cc3ccccc3)c2c1`, the survival is inactive: 83%.
Regarding `CC(=O)Nc1ccc(C2Sc3ccccc3NC3=C2C(=O)c2ccccc23)cc1` (stereo unspecified), the survival was inactive: 116%.
`Cc1cccc(N2C(=O)CS/C2=N\NC(=O)c2cccnc2)c1C`: the survival was inactive: 114%.
For the molecule `Cc1oc2ncn(CC(C)C)c(=O)c2c1C(=O)NCCCN1CCCCC1`, the survival was inactive: 101%.
Turning to `Cc1cc(C)c(NC(=O)c2cc3sc(Cl)cc3n2C)c(C)c1`, the survival is inactive: 128%.
As to `COc1ccccc1CNC(=O)c1ccc(N2CCCC2)c(NC(=O)NCCC(C)C)c1`, the survival was inactive: 94%.
In the case of `O=C(COc1ccc(F)cc1)Nc1ccc2nc(SCC(=O)N3CCc4ccccc43)sc2c1` it was inactive: 57%.
In the case of `COc1cccc(NC(=O)CSc2ncc(S(=O)(=O)c3ccc(C)c(C)c3)c(=O)[nH]2)c1`, the survival was inactive: 63%.
As for `COc1ccc(OCCCCn2c(-c3ccc(Cl)cc3)nc3ccccc3c2=O)cc1`, the survival was active: 34%.
For the molecule `CCCCCOC(=O)CSc1ncnc2c1sc1nc(N3CCOCC3)c3c(c12)CCCC3`, the survival was inactive: 71%.
For `Cc1ccc(C(=O)CC2(O)C(=O)N(CCc3ccccc3)c3ccc(Cl)cc32)cc1` (stereo unspecified), the survival was active: 17%.
As for `Cc1cc(Nc2cccc(C)c2C)n2cnnc2n1`, the survival is inactive: 100%.
`Cn1c(=O)c2c(-c3ccccc3Cl)n(-c3cc(Cl)ccc3O)cc2n(C)c1=O`: the survival was active: 53%.
Take `COc1cc(NC(=O)CCc2nc(-c3cccs3)no2)cc(OC)c1OC`: the survival is inactive: 101%.
As for `Cc1ccc2c(=O)cc(C(=O)Nc3cccc(Cl)c3C)oc2c1C`, the survival was inactive: 54%.
In the case of `CCc1nnc(SCc2nc(-c3ccc(OC)c(OC)c3)oc2C)c2cc3sc(C)cc3n12` it was inactive: 69%; in that of `Cc1ccc(/C=C/c2onc(C)c2S(=O)(=O)N2CCC(C(=O)NCc3ccc(C)o3)CC2)cc1`, inactive: 129%.
In the case of `COc1cccc(CNC(=O)Cc2ccc(NC(=O)N3CCCCc4ccccc43)cc2)c1OC` it was inactive: 68%.
In the case of `COc1ccc(Nc2ncc(C(=O)N3CCN(c4cccc(Cl)c4)CC3)c3ccccc23)cc1`, the survival is inactive: 62%.
To `Cc1cccc(NC(=O)CSc2nc(-c3ccccc3)cn2-c2ccccc2)c1C` belongs inactive: 88%; to `CCc1ccc2ncc3c(-c4ccc(F)cc4)nn(CC(=O)NCc4ccccc4)c3c2c1`, inactive: 69%; to `COc1ccc(CNC(=O)c2c(O)nc3cc(C)ccn3c2=O)cc1`, inactive: 78%.
For the molecule `CC(C)CC(C(=O)NCc1ccc(F)cc1)N1Cc2ccccc2C1=O` (stereo unspecified), the survival was inactive: 88%.
As for `CCc1ccccc1NC(=O)CN1CCC(NC(=O)NC2CCCCC2)CC1`, the survival is inactive: 71%.
For `CCOc1ccc(-c2nc(SCC(=O)Nc3ccc(C)c(C)c3)n3[nH]c(=O)cc3n2)cc1`, the survival was inactive: 78%.
For the molecule `Cc1ccc(C(C)C)c(OCC(=O)Nc2ccc(C(=O)OC3CCCCC3)cc2)c1`, the survival is active: 33%.
For `Cc1ccc(-c2csc(=Nc3ccccc3)n2Cc2ccc3c(c2)OCO3)cc1C`, the survival is inactive: 112%.
In the case of `CCN1CCN(C(c2ccccc2)c2sc3nc(-c4ccco4)nn3c2O)CC1` (stereo unspecified), the survival is inactive: 92%.
In the case of `COc1ccc(S(=O)(=O)c2c(Nc3ccc(F)cc3)sc(C(=O)c3ccc4c(c3)OCO4)c2N)cc1`, the survival is inactive: 116%.
On to `CCOc1ccccc1C(=O)Oc1c(Sc2ccccc2)c(C)nn1C(C)(C)C`, for which the survival was inactive: 91%.
With `COc1ccc(N2CCN(C(=O)c3ccc4c(c3)N(Cc3ccc(F)cc3)C(=O)c3ccccc3S4=O)CC2)cc1` (stereo unspecified), the survival was inactive: 116%.
On to `COc1ccccc1C(=O)n1nc(-c2ccco2)nc1NCc1ccc(Cl)cc1`, for which the survival is inactive: 54%.
To `CCCn1c(C(O)c2cc(OC)c(OC)c(OC)c2)nc2ccccc21` (stereo unspecified) belongs inactive: 75%; to `CC(C(=O)Nc1cc(C(F)(F)F)ccc1Cl)n1nnc2sc3c(c2c1=O)CCCC3` (stereo unspecified), active: 53%.
In the case of `Cc1ccccc1C(=O)NCc1nc2cccnc2n1Cc1ccccc1` it was inactive: 83%; in that of `Cc1ccc2oc(-c3ccc(C)c(NC(=O)c4ccc(C(C)(C)C)cc4)c3)nc2c1`, inactive: 136%; in that of `CCCC(=O)Nc1ccc(NC(=O)c2ccc3c(c2)OCO3)cc1`, inactive: 104%.
Regarding `COc1ccc(-c2cn3c(n2)sc2cc(C(=O)NCCCN4CCCCCC4)ccc23)cc1`, the survival was inactive: 64%.
As to `Nc1cc(N)nc(SCC(=O)Nc2ccccc2)n1`, the survival was inactive: 104%.
In the case of `N#C/C(=C\c1cn(CCOc2ccccc2)c2ccccc12)C(=O)N1CCCC1`, the survival was inactive: 51%.
Consider `COc1ccccc1NC(=O)c1c(NCc2ccc(C)o2)sc2c1CCC(C)C2` (stereo unspecified), for which the survival was inactive: 90%.
In the case of `N#Cc1nc2c(nc1C#N)-c1ccccc1C2=O`, the survival is active: 19%.
Take `COCCc1nn2c(=O)cc(COC(=O)COc3ccc(F)cc3)nc2s1`: the survival was inactive: 109%.
Regarding `CN1CCN(c2oc(-c3ccc(COc4ccc(Cl)cc4)o3)nc2C#N)CC1`, the survival is active: 45%.
With `CC1(C)Nc2ccccc2C(=O)N1c1ccccc1`, the survival was inactive: 98%.
As to `Cc1nc2ccccc2n1CCc1nc2c3ccccc3nc(SCC(=O)Nc3ccc(Br)cc3F)n2n1`, the survival is inactive: 98%.
In the case of `COc1ccc(-c2nc3ccccc3o2)cc1NC(=O)C(C)Oc1ccc(Cl)cc1Cl` (stereo unspecified) it was active: 38%; in that of `CC(C)C12CN3CC(C(C)C)(CN(C1)C3c1ccc(Cl)cc1)C2=O` (stereo unspecified), active: 39%.
To `CN(C)CCCN(C(=O)c1cccs1)c1nc2ccc(F)cc2s1` belongs inactive: 92%; to `O=C(CN1C(=O)CCc2cc(S(=O)(=O)N3CCOCC3)ccc21)Nc1cccc(Cl)c1`, inactive: 75%.
On to `N#Cc1nc(-c2ccc(COc3ccccc3)o2)oc1NCc1ccccc1`, for which the survival is inactive: 70%.
`CCCSc1ncc(Cl)c(C(=O)N(Cc2ccc(N(C)C)cc2)C2CCS(=O)(=O)C2)n1` (stereo unspecified): the survival was inactive: 91%.
To `COc1ccc(NC(=O)Cn2cnc3sc(C)c(S(=O)(=O)N4CCN(C)CC4)c3c2=O)cc1Cl` belongs inactive: 150%; to `CCC(O)c1cc2c(cc1NC(=O)c1cccc(Br)c1)OCCO2` (stereo unspecified), inactive: 56%.
In the case of `CCOC(=O)c1cccc(NC(=O)c2cc(CN3CCOCC3)on2)c1` it was inactive: 94%; in that of `CCN(CC)S(=O)(=O)c1ccc(C(=O)Nc2nc3c(Cl)cc(Cl)cc3s2)cc1`, inactive: 124%.
In the case of `CCOC(=O)c1ccc(NC(=O)COCc2cc(-c3ccc4c(c3)OCO4)on2)cc1` it was inactive: 83%; in that of `CNC(=O)C1CCC(Cn2c(=O)[nH]c3ccsc3c2=O)CC1` (stereo unspecified), inactive: 99%.
Turning to `CCOC(=O)CNC(=O)N1CCc2cc(S(=O)(=O)N3CCC(C)CC3)ccc21`, the survival is inactive: 89%.
In the case of `Cc1ccc(NS(=O)(=O)c2ccc3c(c2)NC(=O)CCS3)cc1C`, the survival is inactive: 79%.
On to `Cc1cccc(OC(=O)c2cc(-c3ccc4c(c3)OCCO4)on2)c1`, for which the survival was active: -2%.
As for `COc1ccc2[nH]c(=O)c(CNCc3ccccc3)cc2c1`, the survival was inactive: 106%.

For the origin of these results see PubChem BioAssay AID463173 (ICCB-Longwood Screening Facility, Harvard Medical School, 2010).
